# According to the RNAGym collection of RNA variant scans (doi:10.7554/elife.90254):
# Read counts are not given, so values of variants with three or more changes are uncertain.
# B1: LINE1-mini (parent)
# chain: GGCAGAGCUCAACACAGCGUGGCAAAGUGGCUGUGGCUAGACUGCC
# Variants of: B1
# Experiment: self-cleavage, relative activity (ratio to wild type); higher = more cleavage; in vitro, sequencing; the parent is a self-cleaving ribozyme
row,Variant,self-cleavage
1,U9A G19U U38A,0.01
2,U9A G17A C18A G21A G22C G27U,0.08
3,U9A C15G G21A G40U U43G,0.51
4,U9A C18G U20A U34C U38G G40U,0.05
5,U9A C13G G30A U43A C46U,0.28
6,U9A G21C G27U G35A C37G A39C,0.17
7,U9C A16U C31A C37U,0.01
8,U9A C18U G35A,0.06
9,U9A G35U U43G G44U,0.03
10,U9A C23U A24U G36U,0.15
11,U9C A12G A14G,0.02
12,U9A C10U G22C G27C C31A G33C C42G U43C,0.03
13,U9A G17U A26U,0.01
14,U9C C13G C15G A25C U28G,0.01
15,U9A C15U A25C,0.32
16,U9C A26C U28A U38A,0.03
17,U9C A26C G27C C46A,0.01
18,U9A C23G A26U A41U,0.28
19,U9A C18U U20C G21A U28C,0.04
20,U9A C13A U34A,0.26
21,U9A G29U G30C,0.03
22,U9A C15A G30U C37U C42A,0.15
23,U9A G17C U34G U38G,0.22
24,U9A U20G G22U A25G G33C G40U U43A,0.03

row,Variant,self-cleavage
1,U9A C10G A24C C37U,0
2,U9A U32C G36C,0.08
3,U9C C10A G17C U32A,0.01
4,U9C C13A U28C G40A,0.02
5,U9C A16U G17C G29U,0.11
6,U9A C18U U34A,0.04
7,U9A C15U A39C,0.19
8,U9A G30U C37A C42A,0.01
9,U9C A14G A39U C42U C45G,0
10,U9A G33A G35U G36A,0.07
11,U9C A12U G22A A25G U43G,0
12,U9A C10A G19U C23U C31A U34G G40A,0.01
13,U9C C13A G21A U38G,0.04
14,U9C C18A G21A G33C G35U,0.03
15,U9A G35U C37U,0.22
16,U9C A11U G36U C42G C46G,0.01
17,U9C C10A A16C,0
18,U9C C10A A25C,0.01
19,U9A C10G C23U A26C G29U A39C,0.01
20,U9A C18U A39G,0.04
21,U9A C10A U20C C31G,0.03
22,U9A C23A G35C,0.06
23,U9C C15G A26C,0.02
24,U9A U34G G40A,0.18

row,Variant,self-cleavage
1,U9C A14U A16U C45G,0.05
2,U9C A12C C13A G19C,0.02
3,U9C C18G G19A U34C,0.02
4,U9C C13U G30U C45A,0.03
5,U9A C18A U20C G40U,0.03
6,U9C A12U A16U U32C G35A,0.02
7,U9A U28G C37U C45A,0.23
8,U9C A12C A25U G27C G33U C45U,0.01
9,U9A C31A G40U,0
10,U9C C10A G29A,0.02
11,U9C C10A C13A A14C,0.03
12,U9C A25C A41U,0.02
13,U9A C10U C46G,0.03
14,U9A G19U A26C G27U G33U U38C U43G G44A,0.01
15,U9A C10U A11G A16C C23U A41U,0
16,U9C C15A C46A,0.02
17,U9A C42G G44C,0.02
18,U9A G27A G35U,0.46
19,U9C C18A C42U,0.06
20,U9A A26C U32A,0.03
21,U9C A12G C15A C18U C23G C42A,0
22,U9C C10A C15U G30U G36U C45U,0.01
23,U9A U32G U34A A39U,0.02
24,U9A C10A A12G G30U,0.02

row,Variant,self-cleavage
1,U9A G21A G30A U32A,0.07
2,U9A U32G G44A C45A,0.08
3,U9C A14G A25C U34G A39U C45A,0
4,U9A G21A U34G,0.08
5,U9C A11G G21U U32A C45A,0.01
6,U9A C31G U38C U43A C46A,0.23
7,U9A C18G G35C,0.05
8,U9C A16C G17A G40A,0.01
9,U9C C13G U34A A39U,0.04
10,U9C A16C G19A,0.01
11,U9C A26C A41C,0.05
12,U9C A11U G21C G30C C31G,0.01
13,U9C C10G A16C A41C,0.02
14,U9C C10U A14U U20G C42G,0.02
15,U9A G33C U38C C45A,0
16,U9A G17U G27A,0.1
17,U9C A12C G17A A25G A41U,0.03
18,U9A U34C A39G,0.06
19,U9C A25G A39G C45G,0.01
20,U9C C15A A24U,0
21,U9A U20C C23U G36U,0.03
22,U9C A12G A26G C42U,0
23,U9C A11U U38A,0.01
24,U9A U20A G40A,0.13

row,Variant,self-cleavage
1,U9A C31G U38G C45U,0
2,U9C C13G A41C,0.06
3,U9A C13U C15U C37A,0.31
4,U9A G19A G30A,2.03
5,U9C A12C C37U,0.02
6,U9C C10A G33C,0.04
7,U9C C10A G21A,0.02
8,U9C A26U U32G,0.07
9,U9C A26C G30A U38A,0.03
10,U9A G33U A41G,0.06
11,U9A C10A C15U U32G A41U,0.05
12,U9C C10G C15U C46U,0.02
13,U9A C15U A24U,0.03
14,U9C A16G U34A,0.02
15,U9A G30A U32C A39G,0.13
16,U9C C13G C18U,0.03
17,U9A G22A U43G,0.37
18,U9A C23G C42A U43C,0.08
19,U9C C13U C18G G35U U43A,0.03
20,U9A G22C U28G,0.04
21,U9C A14G U38A,0.04
22,U9A C18U U32C G40C,0.03
23,U9A G30U G44C,0.03
24,U9A G21C G22A A25U G27A,0.04

row,Variant,self-cleavage
1,U9A G21C C42A U43C,0.02
2,U9C C10U C23A C42G,0.01
3,U9A C10U A12G A25U G30C U34A,0.01
4,U9A C23U A25U,0.19
5,U9C C13A A14U,0.07
6,U9C A12C A14C,0
7,U9C C13G G17U A39U,0.02
8,U9A C10G C15A C31A C45A,0.03
9,U9C C13A U28G,0.01
10,U9C C18A G19U G30C G44A,0.01
11,U9A C15G G19U A24G U32C G36C,0.06
12,U9C A11C G19U U43C,0.01
13,U9C A12U G19A,0.05
14,U9A G21A G30C,0.11
15,U9C A11C C13A C31U U32C,0.13
16,U9A C18G A41U,0.13
17,U9A C18G A25C,0.06
18,U9C C15G A25C C31A G44U,0
19,U9A A26U A41G,0.09
20,U9A C13A A16U G29A G40U C45U,0.08
21,U9C A14C G19A G33C U38A U43C,0
22,U9C A26C U28A G30C G35U G40A,0.23
23,U9A G22C A24C U34G,0.07
24,U9A G22A G29C U32A G35U G44U C45U,0.18

row,Variant,self-cleavage
1,U9A C13U A14G G19C C46U,0
2,U9C C13U U28C,0.03
3,U9C A25G U38A C46A,0
4,U9C C10A A12U G36A U38G,0.01
5,U9A G17A C23A,0.04
6,U9A U20C G21A,0.05
7,U9A G29C C31A,0.08
8,U9A U34C U43A C45A,0.22
9,U9A C10A G19C,0.01
10,U9A C23G U32A C45G,0.14
11,U9C C13U U34A A41G,0
12,U9C C15U C23U G27C,0
13,U9A U34G G36A,0.52
14,U9A G29C G44A,0.13
15,U9C C13U C15G G21A,0.01
16,U9C A26C G29A G36A G40U C46U,0.02
17,U9A C15A G40U,0.15
18,U9C C18G G21C U32G,0.01
19,U9A C10A A14U G19A G21A G35U,0.02
20,U9A C15A U38C G40A C46U,0.08
21,U9A C15A G35A A41U,0.13
22,U9C A26U G27C,0.05
23,U9C C15U G35U A39U,0.01
